# According to the supplement of paper PMC8728848:
# The list shows a part of the results.
# B1: ZG16p (Homo sapiens), O60844 (protein)
# chain: ARSSSYSGEYGGGGGKRFSHSGNQLDGPITALRVRVNTYYIVGLQVRYGKVWSDYVGGRNGDLEEIFLHPGESVIQVSGKYKWYLKKLLFVTDKGRYLSFGKDSGTSFNAVPLHPNTVLRFISGRSGSLINAIGLHWDVYPSSCSRC
# Key:
# Assay in all cases: glycan array binding signal (z-score within array); higher = stronger binding
# Conditions in all cases: glycan notation: IUPAC condensed, linker removed; mutation: D151N
# [1] = biological target: Gal(b1-4)GlcNAc(b1-2)Man(a1-3)[Gal(b1-4)GlcNAc(b1-2)Man(a1-6)]Man(b1-4)GlcNAc(b1-4)GlcNAc
# Method in brief: (§1)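 Glycan array data came from 3228 arrays in the Consortium for Functional Glycomics database, and only arrays with an available protein sequence were kept. Glycan names were put into IUPAC-condensed notation, and columns mapping to the same glycan were averaged. The binding signal is a within-array Z-score, averaged across arrays of one protein sequence run at different concentrations or buffers and across linkers. A negative Z-score can be read as non-binding.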
# [2] = biological target: Gal(b1-4)GlcNAc(b1-2)Man(a1-3)[Gal(b1-4)GlcNAc(b1-2)Man(a1-6)]Man(b1-4)GlcNAc(b1-4)[Fuc(a1-6)]GlcNAc
# Method in brief: as §1
# [3] = biological target: Gal(b1-4)GlcNAc(b1-2)Man(a1-3)[Gal(b1-4)GlcNAc(b1-2)Man(a1-6)][GlcNAc(b1-4)]Man(b1-4)GlcNAc(b1-4)[Fuc(a1-6)]GlcNAc
# Method in brief: as §1
# [4] = biological target: Gal(b1-4)GlcNAc(b1-2)Man(a1-3)[Man(a1-6)]Man(b1-4)GlcNAc(b1-4)GlcNAc
# Method in brief: as §1
# [5] = biological target: Gal(b1-4)GlcNAc(b1-2)Man(a1-6)[GlcNAc(b1-2)Man(a1-3)]Man(b1-4)GlcNAc(b1-4)[Fuc(a1-6)]GlcNAc
# Method in brief: as §1
# [6] = biological target: Gal(b1-4)GlcNAc(b1-2)Man(a1-6)[Man(a1-3)]Man(b1-4)GlcNAc(b1-4)GlcNAc
# Method in brief: as §1
# [7] = biological target: Gal(b1-4)GlcNAc(b1-2)Man(a1-6)[Man(a1-3)]Man(b1-4)GlcNAc(b1-4)[Fuc(a1-6)]GlcNAc
# Method in brief: as §1
# [8] = biological target: Gal(b1-4)GlcNAc(b1-2)[Gal(b1-4)GlcNAc(b1-4)]Man(a1-3)[Fuc(a1-3)[Gal(b1-4)]GlcNAc(b1-2)Man(a1-6)]Man(b1-4)GlcNAc(b1-4)GlcNAc
# Method in brief: as §1
# [9] = biological target: Gal(b1-4)GlcNAc(b1-2)[Gal(b1-4)GlcNAc(b1-4)]Man(a1-3)[Gal(b1-4)GlcNAc(b1-2)[Gal(b1-4)GlcNAc(b1-6)]Man(a1-6)]Man(b1-4)GlcNAc(b1-4)GlcNAc
# Method in brief: as §1
# [10] = biological target: Glc(a1-2)Glc(a1-3)Glc(a1-3)Man(a1-2)Man(a1-2)Man(a1-3)[Man(a1-2)Man(a1-3)[Man(a1-2)Man(a1-6)]Man(a1-6)]Man(b1-4)GlcNAc
# Method in brief: as §1
# [11] = biological target: Glc(a1-2)Glc(a1-3)Glc(a1-3)Man(a1-2)Man(a1-2)Man(a1-3)[Man(a1-3)[Man(a1-6)]Man(a1-6)]Man(b1-4)GlcNAc
# Method in brief: as §1
# [12] = biological target: Glc(a1-3)Glc(a1-3)Man(a1-2)Man(a1-2)Man(a1-3)[Man(a1-2)Man(a1-3)[Man(a1-2)Man(a1-6)]Man(a1-6)]Man(b1-4)GlcNAc(b1-4)GlcNAc
# Method in brief: as §1
# [13] = biological target: Glc(a1-3)Glc(a1-3)Man(a1-2)Man(a1-2)Man(a1-3)[Man(a1-3)[Man(a1-6)]Man(a1-6)]Man(b1-4)GlcNAc
# Method in brief: as §1
# [14] = biological target: Glc(a1-3)Man(a1-2)Man(a1-2)Man(a1-3)[Man(a1-2)Man(a1-3)[Man(a1-2)Man(a1-6)]Man(a1-6)]Man(b1-4)GlcNAc(b1-4)GlcNAc
# Method in brief: as §1
# [15] = biological target: Glc(a1-6)Glc(a1-6)Glc(a1-6)Glc(a1-6)Glc(a1-6)Glc
# Method in brief: as §1
# [16] = biological target: Glc(b1-3)Glc(b1-3)Glc(b1-3)Glc(b1-3)Glc(b1-3)Glc
# Method in brief: as §1
# [17] = biological target: Glc(b1-6)Glc(b1-6)Glc(b1-6)Glc(b1-6)Glc(b1-6)Glc
# Method in brief: as §1
# [18] = biological target: GlcA(b1-3)GlcNAc(b1-4)GlcA(b1-3)GlcNAc(b1-4)GlcA(b1-3)GlcNAc(b1-4)GlcA(b1-3)GlcNAc(b1-4)GlcA(b1-3)GlcNAc(b1-4)GlcA(b1-3)GlcNAc(b1-4)GlcA(b1-3)GlcNAc(b1-4)GlcA(b1-3)GlcNAc
# Method in brief: as §1
# [19] = biological target: GlcNAc(b1-2)Man(a1-3)[GlcNAc(b1-2)Man(a1-6)]Man(b1-4)GlcNAc(b1-4)GlcNAc
# Method in brief: as §1
# [20] = biological target: GlcNAc(b1-2)Man(a1-3)[GlcNAc(b1-2)Man(a1-6)]Man(b1-4)GlcNAc(b1-4)[Fuc(a1-6)]GlcNAc
# Method in brief: as §1
# [21] = biological target: GlcNAc(b1-2)Man(a1-3)[GlcNAc(b1-2)Man(a1-6)][GlcNAc(b1-4)]Man(b1-4)GlcNAc(b1-4)GlcNAc
# Method in brief: as §1
# [22] = biological target: GlcNAc(b1-2)Man(a1-3)[Man(a1-3)[Man(a1-6)]Man(a1-6)][GlcNAc(b1-4)]Man(b1-4)GlcNAc(b1-4)GlcNAc
# Method in brief: as §1
# [23] = biological target: GlcNAc(b1-2)[GlcNAc(b1-4)]Man(a1-3)[GlcNAc(b1-2)Man(a1-6)][GlcNAc(b1-4)]Man(b1-4)GlcNAc(b1-4)GlcNAc
# Method in brief: as §1
# [24] = biological target: GlcNAc(b1-2)[GlcNAc(b1-4)]Man(a1-3)[GlcNAc(b1-2)[GlcNAc(b1-4)][GlcNAc(b1-6)]Man(a1-6)][GlcNAc(b1-4)]Man(b1-4)GlcNAc(b1-4)GlcNAc
# Method in brief: as §1
# [25] = biological target: GlcNAc(b1-2)[GlcNAc(b1-4)]Man(a1-3)[GlcNAc(b1-2)[GlcNAc(b1-6)]Man(a1-6)]Man(b1-4)GlcNAc(b1-4)GlcNAc
# Method in brief: as §1
binder,measurement,setting,value
B1,glycan array binding signal (z-score),[1],-0.561
same,glycan array binding signal (z-score),[2],0.636
same,glycan array binding signal (z-score),[3],-0.565
same,glycan array binding signal (z-score),[4],-0.565
same,glycan array binding signal (z-score),[5],-0.565
same,glycan array binding signal (z-score),[6],-0.565
same,glycan array binding signal (z-score),[7],-0.194
same,glycan array binding signal (z-score),[8],-0.545
same,glycan array binding signal (z-score),[9],-0.44
same,glycan array binding signal (z-score),[10],0.042
same,glycan array binding signal (z-score),[11],0.09
same,glycan array binding signal (z-score),[12],1.79
same,glycan array binding signal (z-score),[13],1.04
same,glycan array binding signal (z-score),[14],-0.368
same,glycan array binding signal (z-score),[15],2.29
same,glycan array binding signal (z-score),[16],0.696
same,glycan array binding signal (z-score),[17],0.764
same,glycan array binding signal (z-score),[18],2.37
same,glycan array binding signal (z-score),[19],-0.565
same,glycan array binding signal (z-score),[20],-0.565
same,glycan array binding signal (z-score),[21],-0.565
same,glycan array binding signal (z-score),[22],-0.565
same,glycan array binding signal (z-score),[23],-0.565
same,glycan array binding signal (z-score),[24],-0.299
same,glycan array binding signal (z-score),[25],-0.552
